These results are taken from a collection of fitness landscapes (doi:10.1016/j.celrep.2020.107928).

First the molecules themselves.
B1: Caulobacter ParB omega fusion; a variant is named by its letters at X, in order, B8GW30 (parent)
chain: MESVVVGEPGMSEGRRGLGRGLSALLGEVDAAPAQAPGEQLGGSREAPIEILQRNPDQPRRTFREEDLEDLSNSIREKGVLQPILVRPSPDTAGEYQIVAGERAWRAAQRAGLKTVPIMVRELDDLAVLEIGIIENVQRADLNVLEEALSYKVLMEKFERTQENIAQTIGKSXSHVANXMRLLXLPDEVQSYLVSGELTAXHARAIAAAADPVALAKQIIEGGLSVRETEALARKAPNLSAGKSKGGRPPRVKDTDTQALESDLSSVLGLDVSIDHRGSTGTLTITYATLEQLDDLCNRLTRGI

The full ranking holds about 81,000 sequences; the median of “one-hybrid fitness for binding NBS DNA” is about -0.1, and the highest 2% start at about 0.36. The list shows a part of the results. Some results are limits rather than exact numbers.

Variants of B1 are the subject of the experiment. Briefly: one-hybrid fitness for binding NBS DNA (the Noc-binding site; scaled: cognate 1, non-cognate 0); higher = stronger binding. As to conditions: with NBS DNA site. Summed up: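 Selection: bacterial one-hybrid in E. coli USO, HIS3 reporter with the site 19 bp from the promoter, 48 hours at 37°C on M9-minus-histidine plus 0.1 mM IPTG and 5 mM 3-AT. Libraries were Caulobacter ParB with four randomised specificity codons, sequenced on Illumina before and after selection. Fitness is the rescaled log change in variant-to-wild-type read ratio, anchored to the cognate and non-cognate sites.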
As for SSLT, the “one-hybrid fitness for binding NBS DNA” value is no more than 0.2.
For KHKR, the “one-hybrid fitness for binding NBS DNA” value was found to be 0.396.
For ERKI the value was no more than 0.2.
For SVKS the value was no more than 0.2; for VITS, no more than 0.2; for KINA, no more than 0.2.
Next, GTSK: no more than 0.2; STVS: no more than 0.2.
With HRTI, the “one-hybrid fitness for binding NBS DNA” value was no more than 0.2.
For SCQT the value was no more than 0.2; for CCMT, no more than 0.2.
For VIRA the value was no more than 0.2.
For KCTR the value was no more than 0.2; for PCDH, no more than 0.2.
Regarding MFWG, the “one-hybrid fitness for binding NBS DNA” value is no more than 0.2.
Next, RDPW: no more than 0.2; EKNR: no more than 0.2.
Next, GGFR: no more than 0.2.
For DAAE the value was no more than 0.2.
In the case of DFPL, the “one-hybrid fitness for binding NBS DNA” value is no more than 0.2.
Regarding CNAG, the “one-hybrid fitness for binding NBS DNA” value was no more than 0.2.
Next, QQRH: 0.645; EANC: no more than 0.2.
Next, LSGD: no more than 0.2.
For the variant QFLR, the “one-hybrid fitness for binding NBS DNA” value is no more than 0.2.
Next, TSTE: no more than 0.2.
Take QQKK: the “one-hybrid fitness for binding NBS DNA” value was 0.506.
Next, LTWT: no more than 0.2; HITA: no more than 0.2.
KVCT: the “one-hybrid fitness for binding NBS DNA” value is no more than 0.2.
For EVGR, the “one-hybrid fitness for binding NBS DNA” value is no more than 0.2.
Next, YYAL: no more than 0.2.
Consider ALDD, for which the “one-hybrid fitness for binding NBS DNA” value was no more than 0.2.
With GQRI, the “one-hybrid fitness for binding NBS DNA” value is no more than 0.2.
Next, TDHQ: no more than 0.2.
On to WCLN, for which the “one-hybrid fitness for binding NBS DNA” value is no more than 0.2.
Consider HYNF, for which the “one-hybrid fitness for binding NBS DNA” value was no more than 0.2.
With QNME, the “one-hybrid fitness for binding NBS DNA” value is no more than 0.2.
On to AHTN, for which the “one-hybrid fitness for binding NBS DNA” value is no more than 0.2.
As to RQGH, the “one-hybrid fitness for binding NBS DNA” value is no more than 0.2.
Next, QAME: no more than 0.2; ETMD: no more than 0.2; MVKS: no more than 0.2.
For KDLC the value was no more than 0.2; for MNIG, no more than 0.2.
Next, TWGC: no more than 0.2.
Turning to HEKL, the “one-hybrid fitness for binding NBS DNA” value is no more than 0.2.
In the case of FTDS, the “one-hybrid fitness for binding NBS DNA” value was no more than 0.2.
Next, DHHL: no more than 0.2; GNSM: no more than 0.2.
As to QHKD, the “one-hybrid fitness for binding NBS DNA” value is no more than 0.2.
As to IQYS, the “one-hybrid fitness for binding NBS DNA” value was no more than 0.2.
For QYTY the value was no more than 0.2.
Take PRDP: the “one-hybrid fitness for binding NBS DNA” value is no more than 0.2.
For VKSC the value was no more than 0.2; for NHNT, no more than 0.2; for KATY, no more than 0.2.
Consider LNMI, for which the “one-hybrid fitness for binding NBS DNA” value was no more than 0.2.
In the case of MLCR, the “one-hybrid fitness for binding NBS DNA” value was no more than 0.2.
Next, RKVY: no more than 0.2.
Next, DALW: no more than 0.2; PMVM: no more than 0.2.
In the case of VGRG, the “one-hybrid fitness for binding NBS DNA” value is no more than 0.2.
As for VHEC, the “one-hybrid fitness for binding NBS DNA” value is no more than 0.2.
Take LIIG: the “one-hybrid fitness for binding NBS DNA” value was no more than 0.2.
Next, CNLR: no more than 0.2.
For YDNR the value was no more than 0.2; for DCPS, no more than 0.2; for DAPE, no more than 0.2.
Next, NWCS: no more than 0.2; KGMT: no more than 0.2; HRYY: no more than 0.2.
On to STYT, for which the “one-hybrid fitness for binding NBS DNA” value is no more than 0.2.
Next, ESMC: no more than 0.2; DWLS: no more than 0.2; WLES: no more than 0.2.
For NRDC the value was no more than 0.2; for MGRE, no more than 0.2.
For the variant DGHI, the “one-hybrid fitness for binding NBS DNA” value is no more than 0.2.
Next, RMDQ: no more than 0.2; PYRT: no more than 0.2.
For GLRR, the “one-hybrid fitness for binding NBS DNA” value is no more than 0.2.
Next, MISK: no more than 0.2; PQET: no more than 0.2; PGAA: no more than 0.2.
For RNYM the value was no more than 0.2; for GTGC, no more than 0.2.
For NDNG, the “one-hybrid fitness for binding NBS DNA” value was no more than 0.2.
As to QRED, the “one-hybrid fitness for binding NBS DNA” value is no more than 0.2.
For KSHT the value was no more than 0.2; for VSGR, no more than 0.2; for TGPR, no more than 0.2.
Take FQSG: the “one-hybrid fitness for binding NBS DNA” value is no more than 0.2.
On to HSDR, for which the “one-hybrid fitness for binding NBS DNA” value was no more than 0.2.
LDNM: the “one-hybrid fitness for binding NBS DNA” value is no more than 0.2.
Next, LERE: no more than 0.2.
For PVRE the value was no more than 0.2.
Next, EHLL: no more than 0.2; YPAK: no more than 0.2; DQLS: no more than 0.2.
Take TVKK: the “one-hybrid fitness for binding NBS DNA” value was no more than 0.2.
With WIPS, the “one-hybrid fitness for binding NBS DNA” value is no more than 0.2.
Next, WLIN: no more than 0.2; TQYA: no more than 0.2; GKPT: no more than 0.2.
Consider PHTQ, for which the “one-hybrid fitness for binding NBS DNA” value was no more than 0.2.
Consider RMQE, for which the “one-hybrid fitness for binding NBS DNA” value is no more than 0.2.
Next, LKHD: no more than 0.2.
For LKLT, the “one-hybrid fitness for binding NBS DNA” value was no more than 0.2.
As to RLIC, the “one-hybrid fitness for binding NBS DNA” value was no more than 0.2.
For EYSI, the “one-hybrid fitness for binding NBS DNA” value was no more than 0.2.
For DRWS the value was no more than 0.2; for VKTM, no more than 0.2.
HTNR: the “one-hybrid fitness for binding NBS DNA” value was no more than 0.2.
RLGY: the “one-hybrid fitness for binding NBS DNA” value was no more than 0.2.
Next, LVLD: no more than 0.2; RANV: no more than 0.2; VSKC: no more than 0.2.
Next, LLHR: no more than 0.2; TDPP: no more than 0.2; DSTP: no more than 0.2.
For VKLG the value was no more than 0.2.
Regarding GVTE, the “one-hybrid fitness for binding NBS DNA” value is no more than 0.2.
For KVSF the value was no more than 0.2; for TADC, no more than 0.2; for CCHT, no more than 0.2.
For TNQN the value was no more than 0.2; for TLRW, no more than 0.2.
Next, RYTH: no more than 0.2.
Turning to MGMS, the “one-hybrid fitness for binding NBS DNA” value is no more than 0.2.
Next, QHRW: 0.239; QTKM: 0.563; NYRN: no more than 0.2.
For VDEC the value was no more than 0.2; for MTEC, no more than 0.2; for NTCF, no more than 0.2.
As to PELE, the “one-hybrid fitness for binding NBS DNA” value was no more than 0.2.
For WFNI the value was no more than 0.2; for CCHC, no more than 0.2.
For ISYS, the “one-hybrid fitness for binding NBS DNA” value is no more than 0.2.
On to PSFQ, for which the “one-hybrid fitness for binding NBS DNA” value is no more than 0.2.
Next, WLRV: no more than 0.2; AGGG: no more than 0.2; LANW: no more than 0.2.
For PSMF the value was no more than 0.2; for TWQF, no more than 0.2.
Next, CPGQ: no more than 0.2; HSKV: no more than 0.2.
Regarding GCTV, the “one-hybrid fitness for binding NBS DNA” value is no more than 0.2.
As to RMGA, the “one-hybrid fitness for binding NBS DNA” value was no more than 0.2.
For IGQF the value was no more than 0.2; for MGFS, no more than 0.2; for KGCS, no more than 0.2.
